This assay has as its system NCI-H1944. The assay can be described thus: normalised cell viability (NPI; 0 = phenylarsine oxide control, 1 = DMSO control) (fraction of DMSO control); NCI-H1944 is a non-small cell lung cancer line; higher = more viable cells (less compound toxicity). The conditions noted are these: 6 days.
[1] abbreviates: glucocorticoid arm: hydrocortisone 2.75 uM co-treatment, compound 1 µM.
Where [2] appears, read: glucocorticoid arm: hydrocortisone 2.75 uM co-treatment, compound 5 µM.
The mark [3] stands for this setting: glucocorticoid arm: hydrocortisone 2.75 uM pre-treated 2 days and continued, compound 1 µM.
Setting [4] is: glucocorticoid arm: hydrocortisone 2.75 uM pre-treated 2 days and continued, compound 5 µM.
Where [5] appears, read: glucocorticoid arm: vehicle, compound 1 µM.
Setting [6] is: glucocorticoid arm: vehicle, compound 5 µM.

Structures are written as SMILES. Structures can show the parent of a compound that is named as a salt. ± gives the standard deviation of the averaged measurements. The lowest values were mostly taken out for another list; the other results follow.
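Note: CTB read-out in 384-well plates, triplicate wells, NPI normalised per plate against 1 µM phenylarsine oxide (0) and 0.1% DMSO (1) controls.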

For `Cc1ccc(C(=O)NCCCCCC(=O)Nc2ccccc2N)cc1`, the normalised cell viability is 0.99 ± 0.019 under setting [1]; 1.03 ± 0.045 under setting [2]; 0.99 ± 0.014 under setting [3]; 1.05 ± 0.01 under setting [4]; 0.996 ± 0.013 under setting [5]; 0.9213 ± 0.009 under setting [6].

With `Cc1nc2c(-c3cnc(N)nc3)nc(N3CCOCC3)nc2n1C(C)C`, the normalised cell viability was found to be 0.291 ± 0.034 under setting [1]; 0.192 ± 0.01 under setting [2]; 0.37 ± 0.039 under setting [3]; 0.315 ± 0.071 under setting [4]; 0.154 ± 0.015 under setting [5]; 0.0743 ± 0.012 under setting [6].

On to `CN1[C@@H]2CC[C@H]1C[C@@H](OC(=O)C(O)c1ccccc1)C2` (mixture of isomers) [DL-Homatropine hydrobromide], for which the normalised cell viability is 0.997 ± 0.0052 under setting [1]; 0.978 ± 0.014 under setting [2]; 1 ± 0.011 under setting [3]; 0.982 ± 0.026 under setting [4]; 1.002 ± 0.0076 under setting [5]; 1.006 ± 0.0063 under setting [6].

For the compound `CN1C2CCC1CC(OC(=O)C(O)c1ccccc1)C2` (stereo not given) [Homatropine Bromide], the normalised cell viability is, setting by setting: under setting [1], 1 ± 0.011; under setting [2], 0.9883 ± 0.0086; under setting [3], 1 ± 0.011; under setting [4], 1 ± 0.033; under setting [5], 1.006 ± 0.0063; under setting [6], 1.01.

On to `Cc1ccccc1-n1c(Cn2nc(-c3cccc(O)c3)c3c(N)ncnc32)nc2cccc(C)c2c1=O`, for which the normalised cell viability worked out at 0.882 ± 0.021 under setting [1]; 0.888 ± 0.013 under setting [2]; 0.876 ± 0.004 under setting [3]; 0.813 ± 0.046 under setting [4]; 0.915 ± 0.021 under setting [5]; 0.9387 ± 0.008 under setting [6].

Values taken from the supplement of paper PMC8285479.
